From PubChem BioAssay AID588382 (National Center for Advancing Translational Sciences (NCATS), 2011)
In all, about 1,300 compounds went through this assay and about 150 (12%) were called active. Inconclusive means that the source gave no clear call. Such entries were picked first, then a sample of the others. Calls follow the shape of the dose curve; as a rule, active = well fitted cell-killing curve with a large enough effect; inconclusive = small, poorly fitted or top-dose-only effect, or effect the other way; inactive = flat fitted curve, though single readings scatter. Where the call is inconclusive, the potency comes from a doubtful curve fit.
Potency is read from the fitted curve at half-maximal effect; tags tell the direction and shape of the fitted curve.

Experiment: qHTS of small molecules that selectively kill Giardia lamblia: Hit Validation in HepG2 cytotox;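 also: compound exposure lasted overnight at 37 deg C; nearly all actives have a fitted effect of over 55% in size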
Conditions: cell viability; Potency: HepG2 cytotoxicity; series mostly up to 38.3 µM
Method in brief: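 HepG2 cells seeded and incubated overnight at 37 deg C, then 23 nL compound added by pintool and incubated overnight at 37 deg C. Viability read as ATP luminescence with ATPLite after 15 min at room temperature.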
For CN=c1scc(-c2ccccc2F)n1/N=C(\C)c1cccnc1, the Potency was inconclusive: 5.85 µM [cytotoxic, partial curve].
In the case of Cc1cc(C)cc(OCC(=O)N/N=C/c2ccc([N+](=O)[O-])o2)c1, the Potency was inconclusive: 14.7 µM [cytotoxic, partial curve, poor fit].
In the case of COc1cc(CNc2nnnn2C)cc(OC)c1OC, the Potency was inconclusive: 18.5 µM [rising, partial curve, poor fit].
For COc1cc2nc(N3CCN(c4cc(C)ccc4C)CC3)nc(N)c2cc1OC, the Potency was active: 9.27 µM.
With CC(C)(C)NC(=O)CCN(/N=C/c1ccc([N+](=O)[O-])o1)C1=NS(=O)(=O)c2ccccc21 the Potency was inconclusive: 13.1 µM [cytotoxic, partial curve].
With O=C(Nc1ccc(-c2nc3ncccc3o2)cc1)c1ccc([N+](=O)[O-])o1 the Potency was active: 4.65 µM.
In the case of CCOn1c(=O)c(-c2cccc([N+](=O)[O-])c2)[n+]([O-])c2ccccc21, the Potency was “inactive”.
With O=C(c1ccc([N+](=O)[O-])o1)N1CCCCCC1 the Potency was inconclusive: 26.1 µM [cytotoxic, single point].
With Cc1ccc(CN=c2c([N+](=O)[O-])nn(-c3cccc(C)c3)n2O)cc1 the Potency was “inactive”.
With c1ccc2cc3c(NCCN4CCOCC4)ccnc3cc2c1 the Potency was inconclusive: 26.1 µM [cytotoxic, single point].
With O=C1C(c2ccncc2)=C(O)c2ccccc21 the Potency was active: 5.85 µM.
In the case of O=C1S/C(=C\c2ccc(O)c([N+](=O)[O-])c2)C(=O)N1c1ccccc1Cl, the Potency was inconclusive: 20.7 µM [cytotoxic, partial curve, poor fit].
In the case of CN(C)c1ccc(/C=C/c2ccc3ccccc3[n+]2[O-])cc1, the Potency was inconclusive: 2.07 µM [cytotoxic, full curve].
For CCn1nc(-c2ccccc2C)nc2c(=O)n(C)c(=O)nc1-2, the Potency was inconclusive: 23.3 µM [cytotoxic, single point].
In the case of O=[N+]([O-])c1ccc(O/N=[N+](\[O-])N2CCCCC2)c([N+](=O)[O-])c1, the Potency was “inactive”.
In the case of O=C(Cc1cccs1)N/N=C\c1ccc([N+](=O)[O-])s1, the Potency was inconclusive: 26.1 µM [cytotoxic, single point].
With CCOC(=O)N1CCN(C(=O)c2ccc(Cl)c(NC(=O)c3cccs3)c2)CC1 the Potency was “inactive”.
With O=[N+]([O-])c1nn(-c2ccc3c(c2)OCCO3)n(O)c1=NC1CCN(Cc2ccccc2)CC1 the Potency was “inactive”.
In the case of CCC(Oc1ccccc1)C(=O)Nc1ncc([N+](=O)[O-])s1 (stereo not drawn), the Potency was inconclusive: 0.369 µM [cytotoxic, partial curve, poor fit].
For O=C(Cc1ccc(Br)cc1)Nc1ncc([N+](=O)[O-])s1, the Potency was inconclusive: 13.1 µM [cytotoxic, single point].
With CCn1nnc(NC(=O)c2ccc([N+](=O)[O-])o2)n1 the Potency was inconclusive: 23.3 µM [cytotoxic, single point].
In the case of COc1ccc(C(=O)c2c3ccc([N+](=O)[O-])cc3[n+]([O-])n2CCCC(N)=O)cc1, the Potency was inconclusive: 5.85 µM [rising, single point].
In the case of Cc1ccc(-c2cc(C(=O)N/N=C/c3ccc([N+](=O)[O-])o3)c3ccccc3n2)o1, the Potency was inconclusive: 7.36 µM [cytotoxic, partial curve].
In the case of O=C(Nc1ccc(C(=O)O)cc1)/C(=C\C=C\c1ccccc1)NC(=O)c1ccccc1Cl, the Potency was inconclusive: 6.56 µM [cytotoxic, partial curve].
In the case of COc1cc2nc(CN(C)Cc3ccc(C(C)(C)C)cc3)[nH]c(=O)c2cc1OC, the Potency was inconclusive: 1.47 µM [cytotoxic, full curve].
In the case of CSCCC(NC(=O)c1ccco1)C(=O)OCc1cc([N+](=O)[O-])cc2c1OCOC2 (stereo not drawn), the Potency was inconclusive: 0.233 µM [cytotoxic, partial curve, poor fit].
In the case of O=C(Nc1ccccc1N1CCOCC1)c1ccc([N+](=O)[O-])s1, the Potency was inconclusive: 14.7 µM [cytotoxic, single point].
For CC(=O)c1cccc(NC(=O)c2ccc([N+](=O)[O-])o2)c1, the Potency was inconclusive: 20.7 µM [cytotoxic, single point].
In the case of CCOC(=O)C1CCN(c2c([N+](=O)[O-])c(C(Cl)Cl)nn2-c2ccccc2)CC1, the Potency was inconclusive: 2.33 µM [cytotoxic, single point].
In the case of O=c1c2c([N+](=O)[O-])cc([N+](=O)[O-])cc2nc2ccccn12, the Potency was “inactive”.
For COc1ccccc1-c1nnc(C2CCN(S(=O)(=O)c3cccc([N+](=O)[O-])c3)CC2)o1, the Potency was “inactive”.
In the case of O=c1cc[nH]c2ccc([N+](=O)[O-])cc12, the Potency was “inactive”.
With O=C(N/N=C/c1ccc([N+](=O)[O-])s1)c1ccccc1Br the Potency was inconclusive: 14.7 µM [cytotoxic, partial curve].
For O=C(CNc1cccc2ccccc12)N/N=C/c1ccc([N+](=O)[O-])o1, the Potency was inconclusive: 20.7 µM [cytotoxic, partial curve, poor fit].
For O=C(Nc1ccc(OCC(=O)N2CCOCC2)cc1)c1ccccc1F, the Potency was inconclusive: 3.69 µM [cytotoxic, full curve].
In the case of O=S(=O)(Nc1cc(Sc2cccc3cccnc23)c(O)c2ccccc12)c1ccc(F)cc1, the Potency was active: 4.65 µM.
In the case of COc1ccc(C)cc1NC(=O)c1cc(S(=O)(=O)N2CCCC2)cn1C, the Potency was “inactive”.
With Cc1ccccc1Cn1nnc2c1C(=O)c1ccccc1C2=O the Potency was inconclusive: 18.5 µM [cytotoxic, single point].
In the case of O=C(N=Nc1c(O)[nH]c2ccccc12)c1cccs1, the Potency was inconclusive: 5.85 µM [cytotoxic, partial curve].
With O=C1c2ccccc2C(=O)C1c1ccncc1 the Potency was inconclusive: 4.65 µM [cytotoxic, partial curve].
For O=C(Nc1ccccc1C(=O)O)c1ccc(NC(=O)C2CC2)cc1, the Potency was inconclusive: 2.07 µM [cytotoxic, full curve].
For COc1cc2c(c3oc(-c4ccccc4)cc(=O)c13)C=CC(C)(C)O2, the Potency was “inactive”.
With O=C(COc1cccnc1[N+](=O)[O-])NCc1ccco1 the Potency was “inactive”.
